Source: article PMC12820563
This is one part of the list. The list includes weakly bound sequences.

The sequences below were run against T1, MBP-FoxP3dN (UniProt Q99JB6) (assay: PD-seq (MBP pull-down with sequencing)). Details: 20 mM Tris-HCl pH 7.5, 100 mM NaCl, 1.5 mM MgCl2, 0.4 uM protein, 0.1 uM dsDNA library, 30 min, room temperature, amylose pull-down; high values mean tight binding; double strand, one strand shown.
T1 sequence: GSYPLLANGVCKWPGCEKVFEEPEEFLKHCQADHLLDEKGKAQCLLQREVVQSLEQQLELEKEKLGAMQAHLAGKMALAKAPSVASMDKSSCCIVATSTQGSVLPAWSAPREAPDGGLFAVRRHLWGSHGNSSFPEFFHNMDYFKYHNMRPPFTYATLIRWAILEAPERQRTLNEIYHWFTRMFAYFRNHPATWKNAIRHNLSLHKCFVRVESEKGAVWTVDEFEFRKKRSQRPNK

| Sequence | binding signal (RPM ratio (pull-down/input)) |
| --- | --- |
| GATGATTGTTCTCCCAGCTGATGAATTGCGTTGATCGAGTAAACAAATTTTCCTAATCTTTCTGTTCAAGCGCCATCTAC | 1.7 |
| GATGATTGTTCTCCCAGCTGATGAATTGGCAGCATCGAGTAAACAAATTTTCCTAATCTTTCTGTTCAAGCGCCATCTAC | 0.886 |
| GATGATTGTTCTCCCAGCTGATGAATTCTTATGATCGAGTAAACAAATTTTCCTAATCTTTCTGTTCAAGCGCCATCTAC | 0.341 |
| GATGATTGTTCTCCCAGCTGATGAATTCAATCCCTCGAGTAAACAAATTTTCCTAATCTTTCTGTTCAAGCGCCATCTAC | 0.315 |
| GATGATTGTTCTCCCAGCTGATGAATTTATATAGTCGAGTAAACAAATTTTCCTAATCTTTCTGTTCAAGCGCCATCTAC | 1.39 |
| GATGATTGTTCTCCCAGCTGATGAATTGATAATGTCGAGTAAACAAATTTTCCTAATCTTTCTGTTCAAGCGCCATCTAC | 0.495 |
| GATGATTGTTCTCCCAGCTGATGAATTAGTTTCGTCGAGTAAACAAATTTTCCTAATCTTTCTGTTCAAGCGCCATCTAC | 2.39 |
| GATGATTGTTCTCCCAGCTGATGAATTTCGCCTGTCGAGTAAACAAATTTTCCTAATCTTTCTGTTCAAGCGCCATCTAC | 5.23 |
| GATGATTGTTCTCCCAGCTGATGAATTCCCCACCTCGAGTAAACAAATTTTCCTAATCTTTCTGTTCAAGCGCCATCTAC | 0.213 |
| GATGATTGTTCTCCCAGCTGATGAATTGCGCTCTTCGAGTAAACAAATTTTCCTAATCTTTCTGTTCAAGCGCCATCTAC | 1.2 |
| GATGATTGTTCTCCCAGCTGATGAATTTGCAACGTCGAGTAAACAAATTTTCCTAATCTTTCTGTTCAAGCGCCATCTAC | 2.24 |
| GATGATTGTTCTCCCAGCTGATGAATTTGCTACCTCGAGTAAACAAATTTTCCTAATCTTTCTGTTCAAGCGCCATCTAC | 1.25 |
| GATGATTGTTCTCCCAGCTGATGAATTATTTATGTCGAGTAAACAAATTTTCCTAATCTTTCTGTTCAAGCGCCATCTAC | 2.12 |
| GATGATTGTTCTCCCAGCTGATGAATTGAAAACCTCGAGTAAACAAATTTTCCTAATCTTTCTGTTCAAGCGCCATCTAC | 0.255 |
| GATGATTGTTCTCCCAGCTGATGAATTCCTGGATTCGAGTAAACAAATTTTCCTAATCTTTCTGTTCAAGCGCCATCTAC | 0.249 |
| GATGATTGTTCTCCCAGCTGATGAATTGATTTCCTCGAGTAAACAAATTTTCCTAATCTTTCTGTTCAAGCGCCATCTAC | 0.953 |
| GATGATTGTTCTCCCAGCTGATGAATTTGCTATATCGAGTAAACAAATTTTCCTAATCTTTCTGTTCAAGCGCCATCTAC | 1.68 |
| GATGATTGTTCTCCCAGCTGATGAATTTATAACCTCGAGTAAACAAATTTTCCTAATCTTTCTGTTCAAGCGCCATCTAC | 0.577 |
| GATGATTGTTCTCCCAGCTGATGAATTGGCTACATCGAGTAAACAAATTTTCCTAATCTTTCTGTTCAAGCGCCATCTAC | 0.479 |
| GATGATTGTTCTCCCAGCTGATGAATTTTAAGCCTCGAGTAAACAAATTTTCCTAATCTTTCTGTTCAAGCGCCATCTAC | 0.344 |
| GATGATTGTTCTCCCAGCTGATGAATTAAACCTATCGAGTAAACAAATTTTCCTAATCTTTCTGTTCAAGCGCCATCTAC | 0.337 |

| Sequence | binding signal (RPM ratio (pull-down/input)) |
| --- | --- |
| GATGATTGTTCTCCCAGCTGATGAATTTCCACCATCGAGTAAACAAATTTTCCTAATCTTTCTGTTCAAGCGCCATCTAC | 0.343 |
| GATGATTGTTCTCCCAGCTGATGAATTCTGTAACTCGAGTAAACAAATTTTCCTAATCTTTCTGTTCAAGCGCCATCTAC | 2.21 |
| GATGATTGTTCTCCCAGCTGATGAATTGTAAGTATCGAGTAAACAAATTTTCCTAATCTTTCTGTTCAAGCGCCATCTAC | 0.947 |
| GATGATTGTTCTCCCAGCTGATGAATTCTCACCCTCGAGTAAACAAATTTTCCTAATCTTTCTGTTCAAGCGCCATCTAC | 0.25 |
| GATGATTGTTCTCCCAGCTGATGAATTAGCGCTGTCGAGTAAACAAATTTTCCTAATCTTTCTGTTCAAGCGCCATCTAC | 0.488 |
| GATGATTGTTCTCCCAGCTGATGAATTCGGAAATTCGAGTAAACAAATTTTCCTAATCTTTCTGTTCAAGCGCCATCTAC | 0.499 |
| GATGATTGTTCTCCCAGCTGATGAATTTCTTTCCTCGAGTAAACAAATTTTCCTAATCTTTCTGTTCAAGCGCCATCTAC | 0.431 |
| GATGATTGTTCTCCCAGCTGATGAATTTCATTCTTCGAGTAAACAAATTTTCCTAATCTTTCTGTTCAAGCGCCATCTAC | 0.375 |
| GATGATTGTTCTCCCAGCTGATGAATTGGTGCCGTCGAGTAAACAAATTTTCCTAATCTTTCTGTTCAAGCGCCATCTAC | 0.709 |
| GATGATTGTTCTCCCAGCTGATGAATTCGCCCAATCGAGTAAACAAATTTTCCTAATCTTTCTGTTCAAGCGCCATCTAC | 0.293 |
| GATGATTGTTCTCCCAGCTGATGAATTAGTATGTTCGAGTAAACAAATTTTCCTAATCTTTCTGTTCAAGCGCCATCTAC | 4.19 |
| GATGATTGTTCTCCCAGCTGATGAATTGGTTGGTTCGAGTAAACAAATTTTCCTAATCTTTCTGTTCAAGCGCCATCTAC | 3.77 |
| GATGATTGTTCTCCCAGCTGATGAATTGCGGGTCTCGAGTAAACAAATTTTCCTAATCTTTCTGTTCAAGCGCCATCTAC | 1.1 |
| GATGATTGTTCTCCCAGCTGATGAATTAACCGGGTCGAGTAAACAAATTTTCCTAATCTTTCTGTTCAAGCGCCATCTAC | 0.173 |
| GATGATTGTTCTCCCAGCTGATGAATTAGCGGCATCGAGTAAACAAATTTTCCTAATCTTTCTGTTCAAGCGCCATCTAC | 0.888 |
| GATGATTGTTCTCCCAGCTGATGAATTTTGGCTTTCGAGTAAACAAATTTTCCTAATCTTTCTGTTCAAGCGCCATCTAC | 1.2 |
| GATGATTGTTCTCCCAGCTGATGAATTTGCCTTCTCGAGTAAACAAATTTTCCTAATCTTTCTGTTCAAGCGCCATCTAC | 1.85 |
| GATGATTGTTCTCCCAGCTGATGAATTACTGAAATCGAGTAAACAAATTTTCCTAATCTTTCTGTTCAAGCGCCATCTAC | 0.283 |
| GATGATTGTTCTCCCAGCTGATGAATTTGATTACTCGAGTAAACAAATTTTCCTAATCTTTCTGTTCAAGCGCCATCTAC | 6.08 |
| GATGATTGTTCTCCCAGCTGATGAATTTCGGCTATCGAGTAAACAAATTTTCCTAATCTTTCTGTTCAAGCGCCATCTAC | 0.622 |
| GATGATTGTTCTCCCAGCTGATGAATTACATAGGTCGAGTAAACAAATTTTCCTAATCTTTCTGTTCAAGCGCCATCTAC | 0.413 |

| Sequence | binding signal (RPM ratio (pull-down/input)) |
| --- | --- |
| GATGATTGTTCTCCCAGCTGATGAATTCTCGGGGTCGAGTAAACAAATTTTCCTAATCTTTCTGTTCAAGCGCCATCTAC | 0.181 |
| GATGATTGTTCTCCCAGCTGATGAATTCTGAATATCGAGTAAACAAATTTTCCTAATCTTTCTGTTCAAGCGCCATCTAC | 0.629 |
| GATGATTGTTCTCCCAGCTGATGAATTCACCTATTCGAGTAAACAAATTTTCCTAATCTTTCTGTTCAAGCGCCATCTAC | 0.321 |
| GATGATTGTTCTCCCAGCTGATGAATTCAAACATTCGAGTAAACAAATTTTCCTAATCTTTCTGTTCAAGCGCCATCTAC | 1.12 |
| GATGATTGTTCTCCCAGCTGATGAATTATGCCAATCGAGTAAACAAATTTTCCTAATCTTTCTGTTCAAGCGCCATCTAC | 1.17 |
| GATGATTGTTCTCCCAGCTGATGAATTAGATCCATCGAGTAAACAAATTTTCCTAATCTTTCTGTTCAAGCGCCATCTAC | 0.298 |
| GATGATTGTTCTCCCAGCTGATGAATTCTTAGTATCGAGTAAACAAATTTTCCTAATCTTTCTGTTCAAGCGCCATCTAC | 0.42 |
| GATGATTGTTCTCCCAGCTGATGAATTTGAGCGGTCGAGTAAACAAATTTTCCTAATCTTTCTGTTCAAGCGCCATCTAC | 0.3 |
| GATGATTGTTCTCCCAGCTGATGAATTGTCAACTTCGAGTAAACAAATTTTCCTAATCTTTCTGTTCAAGCGCCATCTAC | 0.733 |
| GATGATTGTTCTCCCAGCTGATGAATTCGCAAACTCGAGTAAACAAATTTTCCTAATCTTTCTGTTCAAGCGCCATCTAC | 0.431 |
| GATGATTGTTCTCCCAGCTGATGAATTCTATTTGTCGAGTAAACAAATTTTCCTAATCTTTCTGTTCAAGCGCCATCTAC | 5.87 |
| GATGATTGTTCTCCCAGCTGATGAATTTAACTACTCGAGTAAACAAATTTTCCTAATCTTTCTGTTCAAGCGCCATCTAC | 0.559 |
| GATGATTGTTCTCCCAGCTGATGAATTACCACCTTCGAGTAAACAAATTTTCCTAATCTTTCTGTTCAAGCGCCATCTAC | 0.337 |
| GATGATTGTTCTCCCAGCTGATGAATTCGTTTTTTCGAGTAAACAAATTTTCCTAATCTTTCTGTTCAAGCGCCATCTAC | 2.58 |
| GATGATTGTTCTCCCAGCTGATGAATTAGTCCGATCGAGTAAACAAATTTTCCTAATCTTTCTGTTCAAGCGCCATCTAC | 0.242 |
| GATGATTGTTCTCCCAGCTGATGAATTGAGTCTTTCGAGTAAACAAATTTTCCTAATCTTTCTGTTCAAGCGCCATCTAC | 0.597 |
| GATGATTGTTCTCCCAGCTGATGAATTCAACTAGTCGAGTAAACAAATTTTCCTAATCTTTCTGTTCAAGCGCCATCTAC | 0.309 |
| GATGATTGTTCTCCCAGCTGATGAATTGTGGGCCTCGAGTAAACAAATTTTCCTAATCTTTCTGTTCAAGCGCCATCTAC | 0.719 |
| GATGATTGTTCTCCCAGCTGATGAATTCCGTCAGTCGAGTAAACAAATTTTCCTAATCTTTCTGTTCAAGCGCCATCTAC | 0.433 |
| GATGATTGTTCTCCCAGCTGATGAATTGCACTGCTCGAGTAAACAAATTTTCCTAATCTTTCTGTTCAAGCGCCATCTAC | 0.798 |
| GATGATTGTTCTCCCAGCTGATGAATTGCCCGGGTCGAGTAAACAAATTTTCCTAATCTTTCTGTTCAAGCGCCATCTAC | 0.289 |
